Variants at the background level are over-represented here.
B1: TPR 5TU (parent)
chain: GGAUCUUCUCGAUCUAACAAAAAAGACAAAUCUGCCACAAAGCUUGAGAGCAUCUUCGGAUGCAGAGGCGGCAGCCUUCGGUGGCGCGAUAGCGCCAACGUUCUCAACUAUGACACGCAAAACGCGUGCUCCGUUGAAUGGAGUUUAUCAUG

Variants of: B1
Test: polymerase ribozyme fitness, log enrichment relative to wild type (log ratio); higher = more active; in vitro selection for triplet polymerase activity
In short: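 Fitness measures genotype enrichment against wild-type enrichment on a logarithmic scale, with inverse-variance-weighted averaging of replicates. The logarithm is base 2, and genotypes were kept only with ≥10 input reads and ≥1 read per output in Illumina sequencing. The sequenced libraries came from one triplicate in vitro selection round, including frozen incubation at −7 °C, of PCR-built, transcribed mutant libraries of each subunit of a heterodimeric triplet polymerase ribozyme.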

Variant	polymerase ribozyme fitness (log ratio)
A19C G50A A52C G65U C99U U148G	≤ -4.2
A20C G48U G83U	-2.07
A19G G50C U148G	≤ -4.2
A20G A73C A107C C116G U134C	≤ -4.2
A19U G84C	-2.08
A19G A28G A60G G86C A107G C118U G141U	≤ -4.2
A19U A21G U45G U56A G92U	-1.94
A19G A26G G81C G92A U134A	≤ -4.2
A20U A41U U55A A66U G84A C116A	≤ -4.2
A20C G25U A40U A41C G68U C75G C79A U82G C93A G124A	≤ -4.2
A19U A28U G67C U82A C87A A122C U127C U145C	≤ -4.2
A20U A26U C63A U102A U109C	≤ -4.2
A19G A20U A28U U53G G62U G71A G80A G92U A98G	≤ -4.2
A20U G71A C95A	≤ -4.2
A20U A60G G67A U78C C93U C95G G124A U148C	≤ -4.2
A20U A24G A41C G42U C96A C103A A106U	≤ -4.2
A19U C38A C54U C85A C108A	≤ -4.2
A19C U53A G71A U78A G92C C116U A142U	≤ -4.2
A20C G46C C63U C108U C114G	≤ -4.2
A19U U53G C85U C105G C114U	≤ -4.2
A19C U56A	0.406

Variant	polymerase ribozyme fitness (log ratio)
A20U G70A C76A C96U U139G	≤ -4.2
A20C C36A G71A G86C A91U C95A A97G G124A	≤ -4.2
A20U A49G C85U A110G U148A	≤ -4.2
A19G A24U C85A C114A A115G A120G	≤ -4.2
A20C U53A C57G G86U G133U U146C	≤ -4.2
A19U C79A	≤ -4.2
A19U C27U C43U G50A G65U U77A G100A A120C G141A	≤ -4.2
A20U A47U C54U U56A A66G A73U G92U G100A U145C A147C	≤ -4.2
A19G C32G G68U	≤ -4.2
A19C G86C C99U	-2.28
A20C U53A G62C G86U	≤ -4.2
A20U A40C C43A C96G A119C	≤ -4.2
A19G G25U A47C U78C C96A	≤ -4.2
A20G A30U C95U	-3.5
A20U C57U A66U C95A U102C G141A U145G	≤ -4.2
A20G C54A G74C G86A C87U U146C	≤ -4.2
A20U C43A G70C G83A U148A	≤ -4.2
A19G C87A A98G	≤ -4.2
A20U A28G G58C U77C	≤ -4.2
A20U U55G C93G G94C A142G	≤ -4.2
A20C U44A U56G A89C A142C	≤ -4.2

Variant	polymerase ribozyme fitness (log ratio)
A20G C35A G50A G62U C96A	≤ -4.2
A19G A20U A41G U45A C57U A113G C114U	≤ -4.2
A19G C27A A28C A39C G88C	≤ -4.2
A20U C27A U31G A40G G42U C96G A97G	≤ -4.2
A20C C51A G100C	≤ -4.2
A20U A40U U56A C96A G141C	-2.73
A20U C38U C87U A115U U135G C149A	≤ -4.2
A20G A28C A52G C95A C96U A107C U135G G136C G152A	≤ -4.2
A19U A73G C87G G141U C149G	≤ -4.2
A19C U31G A39C A64G	≤ -4.2
A20G A47C G48C G50C U56C C87A C95G U139A G141A	-4.1
A19G G50A C54A G83U C116U C123U	≤ -4.2
A19U C38U A64C C69U C79U G92A C123U C129G	≤ -4.2
A20U A22U C54A G80A U90G A113U C123G U135A	≤ -4.2
A20C A21U C54U U55A C76G	≤ -4.2
A19U A20U C54G U56A U77C G88U C95G A97C C125A G126A	≤ -4.2
A20G C35G A89U A97C G143C	≤ -4.2
A19U C51U C54U G84U G143C	≤ -4.2
A19G C35G U55A G58A A60C C85U G140C	≤ -4.2
A20G C93A C132G U134G U148G	≤ -4.2
A20U C43U C69G C85A	≤ -4.2

Variant	polymerase ribozyme fitness (log ratio)
A19G G46U G48C G62A G94U A107G	≤ -4.2
A20U A47U C87A	≤ -4.2
A19C G62U C95U C96A	-2.36
A19U G42A G86A	≤ -4.2
A19G C87G	≤ -4.2
A20G A30U C95G C108A G140A G141C	≤ -4.2
A19U A23G U90G	-3.99
A19C U61A A107C A120G	≤ -4.2
A20C A47C G59U A91G U109A U144G	≤ -4.2
A20G C32U C54G G126A U127G	≤ -4.2
A19C U45A G59U U148A C149G	≤ -4.2
A20U C38U A39C C57U C87A	≤ -4.2
A20G C69U G84C G126C G136A	-1.72
A20C A28U C54U C85G U104G U151G	≤ -4.2
A20C A39G A52C G67A U109G G140C U148C	≤ -4.2
A20G U45A G50A C87U G94A	≤ -4.2
A19G A20G A60G C76A A89U C93A	≤ -4.2
A20G A107U C125U U151G	≤ -4.2
A20U G46C G62U C75G G92A G140C	≤ -4.2
A19U A20U C32U G83U C85A G133U	≤ -4.2

— the RNAGym collection of RNA variant scans (doi:10.1073/pnas.2313332121)
